# Reference: the supplement of paper PMC8728848
# The list shows a part of the results.
# B1: SSP1 (Sclerotinia sclerotiorum), XP_001584968 (protein)
# chain: MGSSHHHHHHSSGLVPRGSHMSLLTTELACTSAPDQVLHLFFQDGQNILEARSPDGGNVWTTQDTIIAKDGDYNGSSMTCYYVDKDANFDNQPSIHLLYMNKDKQLTEKVKRMKGDNPIWEDAKVPDEVRKGPEQYSKLTSGSFNQGTGWNPNGSQWAYFSASKDGKMGIVEIRRTPKDPWHTETILEEKWGDELPGTALACVIGNGKIRVFLQHHDYSIILYENQNNTWHDRGTFIPKDKVQATTPLACTMTKDGSVHLFYVSKSNKIIHCTDGKKEEELINFFPGSKLGATSVENKITLFFRNLNPVNEVGTLENENGSWKHGTTVIPA
# Tests used:
# Test in all cases: glycan array binding signal (z-score within array); higher = stronger binding
# Conditions in all cases: glycan notation: IUPAC condensed, linker removed
# [1] = molecular target: GlcNAc(b1-3)Gal(b1-3)GalNAc
# Summary of the method: (§1)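 The Consortium for Functional Glycomics database supplied 3228 glycan arrays, of which those lacking an available protein sequence were dropped. The binding signal, a within-array Z-score, was averaged across arrays of the same protein sequence and across linkers. Negative scores can be read as non-binding.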
# [2] = molecular target: GlcNAc(b1-3)Gal(b1-4)Glc
# Summary of the method: as §1
# [3] = molecular target: GlcNAc(b1-3)Gal(b1-4)GlcNAc
# Summary of the method: as §1
# [4] = molecular target: GlcNAc(b1-3)Gal(b1-4)GlcNAc(b1-2)Man(a1-3)[GlcNAc(b1-3)Gal(b1-4)GlcNAc(b1-2)Man(a1-6)]Man(b1-4)GlcNAc(b1-4)GlcNAc
# Summary of the method: as §1
# [5] = molecular target: GlcNAc(b1-3)Gal(b1-4)GlcNAc(b1-2)Man(a1-3)[GlcNAc(b1-3)Gal(b1-4)GlcNAc(b1-2)Man(a1-6)]Man(b1-4)GlcNAc(b1-4)[Fuc(a1-6)]GlcNAc
# Summary of the method: as §1
# [6] = molecular target: GlcNAc(b1-3)Gal(b1-4)GlcNAc(b1-2)[GlcNAc(b1-3)Gal(b1-4)GlcNAc(b1-6)]Man(a1-6)[GlcNAc(b1-3)Gal(b1-4)GlcNAc(b1-2)Man(a1-3)]Man(b1-4)GlcNAc(b1-4)GlcNAc
# Summary of the method: as §1
# [7] = molecular target: GlcNAc(b1-3)Gal(b1-4)GlcNAc(b1-3)Gal(b1-4)GlcNAc
# Summary of the method: as §1
# [8] = molecular target: GlcNAc(b1-3)Gal(b1-4)GlcNAc(b1-3)Gal(b1-4)GlcNAc(b1-2)Man(a1-3)[GlcNAc(b1-3)Gal(b1-4)GlcNAc(b1-3)Gal(b1-4)GlcNAc(b1-2)Man(a1-6)]Man(b1-4)GlcNAc(b1-4)GlcNAc
# Summary of the method: as §1
# [9] = molecular target: GlcNAc(b1-3)Gal(b1-4)GlcNAc(b1-3)Gal(b1-4)GlcNAc(b1-2)Man(a1-3)[GlcNAc(b1-3)Gal(b1-4)GlcNAc(b1-3)Gal(b1-4)GlcNAc(b1-2)Man(a1-6)]Man(b1-4)GlcNAc(b1-4)[Fuc(a1-6)]GlcNAc
# Summary of the method: as §1
# [10] = molecular target: GlcNAc(b1-3)Gal(b1-4)GlcNAc(b1-3)Gal(b1-4)GlcNAc(b1-2)[GlcNAc(b1-3)Gal(b1-4)GlcNAc(b1-3)Gal(b1-4)GlcNAc(b1-6)]Man(a1-6)[GlcNAc(b1-3)Gal(b1-4)GlcNAc(b1-3)Gal(b1-4)GlcNAc(b1-2)Man(a1-3)]Man(b1-4)GlcNAc(b1-4)[Fuc(a1-6)]GlcNAc
# Summary of the method: as §1
# [11] = molecular target: GlcNAc(b1-3)Gal(b1-4)GlcNAc(b1-3)Gal(b1-4)GlcNAc(b1-3)Gal(b1-4)GlcNAc(b1-2)Man(a1-3)[GlcNAc(b1-3)Gal(b1-4)GlcNAc(b1-3)Gal(b1-4)GlcNAc(b1-3)Gal(b1-4)GlcNAc(b1-2)Man(a1-6)]Man(b1-4)GlcNAc(b1-4)GlcNAc
# Summary of the method: as §1
# [12] = molecular target: GlcNAc(b1-3)Gal(b1-4)GlcNAc(b1-3)Gal(b1-4)GlcNAc(b1-3)Gal(b1-4)GlcNAc(b1-2)Man(a1-3)[GlcNAc(b1-3)Gal(b1-4)GlcNAc(b1-3)Gal(b1-4)GlcNAc(b1-3)Gal(b1-4)GlcNAc(b1-2)Man(a1-6)]Man(b1-4)GlcNAc(b1-4)[Fuc(a1-6)]GlcNAc
# Summary of the method: as §1
# [13] = molecular target: GlcNAc(b1-3)Gal(b1-4)GlcNAc(b1-3)Gal(b1-4)GlcNAc(b1-3)Gal(b1-4)GlcNAc(b1-2)[GlcNAc(b1-3)Gal(b1-4)GlcNAc(b1-3)Gal(b1-4)GlcNAc(b1-3)Gal(b1-4)GlcNAc(b1-6)]Man(a1-6)[GlcNAc(b1-3)Gal(b1-4)GlcNAc(b1-3)Gal(b1-4)GlcNAc(b1-3)Gal(b1-4)GlcNAc(b1-2)Man(a1-3)]Man(b1-4)GlcNAc(b1-4)[Fuc(a1-6)]GlcNAc
# Summary of the method: as §1
# [14] = molecular target: GlcNAc(b1-3)Gal(b1-4)GlcNAc(b1-3)Gal(b1-4)GlcNAc(b1-3)Gal(b1-4)GlcNAc(b1-3)Gal(b1-4)GlcNAc(b1-2)Man(a1-3)[GlcNAc(b1-3)Gal(b1-4)GlcNAc(b1-3)Gal(b1-4)GlcNAc(b1-3)Gal(b1-4)GlcNAc(b1-3)Gal(b1-4)GlcNAc(b1-2)Man(a1-6)]Man(b1-4)GlcNAc(b1-4)GlcNAc
# Summary of the method: as §1
# [15] = molecular target: GlcNAc(b1-3)Gal(b1-4)GlcNAc(b1-3)Gal(b1-4)GlcNAc(b1-3)Gal(b1-4)GlcNAc(b1-3)Gal(b1-4)GlcNAc(b1-2)Man(a1-3)[GlcNAc(b1-3)Gal(b1-4)GlcNAc(b1-3)Gal(b1-4)GlcNAc(b1-3)Gal(b1-4)GlcNAc(b1-3)Gal(b1-4)GlcNAc(b1-2)Man(a1-6)]Man(b1-4)GlcNAc(b1-4)[Fuc(a1-6)]GlcNAc
# Summary of the method: as §1
# [16] = molecular target: GlcNAc(b1-3)Gal(b1-4)GlcNAc(b1-3)Gal(b1-4)GlcNAc(b1-3)Gal(b1-4)GlcNAc(b1-3)Gal(b1-4)GlcNAc(b1-2)[GlcNAc(b1-3)Gal(b1-4)GlcNAc(b1-3)Gal(b1-4)GlcNAc(b1-3)Gal(b1-4)GlcNAc(b1-3)Gal(b1-4)GlcNAc(b1-6)]Man(a1-6)[GlcNAc(b1-3)Gal(b1-4)GlcNAc(b1-3)Gal(b1-4)GlcNAc(b1-3)Gal(b1-4)GlcNAc(b1-3)Gal(b1-4)GlcNAc(b1-2)Man(a1-3)]Man(b1-4)GlcNAc(b1-4)[Fuc(a1-6)]GlcNAc
# Summary of the method: as §1
# [17] = molecular target: GlcNAc(b1-3)Gal(b1-4)GlcNAc(b1-3)Gal(b1-4)GlcNAc(b1-3)GalNAc
# Summary of the method: as §1
# [18] = molecular target: GlcNAc(b1-3)Gal(b1-4)GlcNAc(b1-3)GalNAc
# Summary of the method: as §1
# [19] = molecular target: GlcNAc(b1-3)Gal(b1-4)GlcNAc(b1-3)[GlcNAc(b1-3)Gal(b1-4)GlcNAc(b1-3)]GalNAc
# Summary of the method: as §1
# [20] = molecular target: GlcNAc(b1-3)Gal(b1-4)GlcNAc(b1-6)[Gal(b1-3)]GalNAc
# Summary of the method: as §1
# [21] = molecular target: GlcNAc(b1-3)Gal(b1-4)GlcNAc(b1-6)[GlcNAc(b1-3)Gal(b1-3)]GalNAc
# Summary of the method: as §1
# [22] = molecular target: GlcNAc(b1-3)Gal(b1-4)GlcNAc(b1-6)[GlcNAc(b1-3)]Gal(b1-4)GlcNAc
# Summary of the method: as §1
# [23] = molecular target: GlcNAc(b1-3)GalNAc
# Summary of the method: as §1
# [24] = molecular target: GlcNAc(b1-3)Man
# Summary of the method: as §1
# [25] = molecular target: GlcNAc(b1-3)[GlcNAc(b1-4)][GlcNAc(b1-6)]GlcNAc
# Summary of the method: as §1
# [26] = molecular target: GlcNAc(b1-3)[GlcNAc(b1-6)]Gal(b1-4)GlcNAc
# Summary of the method: as §1
# [27] = molecular target: GlcNAc(b1-3)[GlcNAc(b1-6)]GalNAc
# Summary of the method: as §1
# [28] = molecular target: GlcNAc(b1-4)Gal(b1-4)GlcNAc
# Summary of the method: as §1
# [29] = molecular target: GlcNAc(b1-4)GlcNAc
# Summary of the method: as §1
# [30] = molecular target: GlcNAc(b1-4)GlcNAc(b1-4)GlcNAc
# Summary of the method: as §1
# [31] = molecular target: GlcNAc(b1-4)GlcNAc(b1-4)GlcNAc(b1-4)GlcNAc(b1-4)GlcNAc
# Summary of the method: as §1
# [32] = molecular target: GlcNAc(b1-4)GlcNAc(b1-4)GlcNAc(b1-4)GlcNAc(b1-4)GlcNAc(b1-4)GlcNAc
# Summary of the method: as §1
# [33] = molecular target: GlcNAc(b1-4)[GlcNAc(b1-6)]GalNAc
# Summary of the method: as §1
# [34] = molecular target: GlcNAc(b1-6)Gal(b1-4)GlcNAc
# Summary of the method: as §1
# [35] = molecular target: GlcNAc(b1-6)GalNAc
# Summary of the method: as §1
# [36] = molecular target: GlcNAc6S(b1-3)Gal(b1-4)GlcNAc
# Summary of the method: as §1
# [37] = molecular target: Kdn(a2-3)Gal(b1-3)GalNAc
# Summary of the method: as §1
binder,measurement,setting,value
B1,glycan array binding signal (z-score),[1],-0.121
same,glycan array binding signal (z-score),[2],-0.692
same,glycan array binding signal (z-score),[3],-0.127
same,glycan array binding signal (z-score),[4],-0.383
same,glycan array binding signal (z-score),[5],0.756
same,glycan array binding signal (z-score),[6],0.749
same,glycan array binding signal (z-score),[7],-0.652
same,glycan array binding signal (z-score),[8],1.22
same,glycan array binding signal (z-score),[9],-0.058
same,glycan array binding signal (z-score),[10],-0.014
same,glycan array binding signal (z-score),[11],-0.019
same,glycan array binding signal (z-score),[12],-0.121
same,glycan array binding signal (z-score),[13],0.078
same,glycan array binding signal (z-score),[14],-0.335
same,glycan array binding signal (z-score),[15],-0.088
same,glycan array binding signal (z-score),[16],0.002
same,glycan array binding signal (z-score),[17],0.044
same,glycan array binding signal (z-score),[18],-0.137
same,glycan array binding signal (z-score),[19],-0.162
same,glycan array binding signal (z-score),[20],-0.156
same,glycan array binding signal (z-score),[21],-0.034
same,glycan array binding signal (z-score),[22],-0.365
same,glycan array binding signal (z-score),[23],-0.446
same,glycan array binding signal (z-score),[24],-0.252
same,glycan array binding signal (z-score),[25],0.269
same,glycan array binding signal (z-score),[26],0.078
same,glycan array binding signal (z-score),[27],-0.48
same,glycan array binding signal (z-score),[28],-0.694
same,glycan array binding signal (z-score),[29],0.012
same,glycan array binding signal (z-score),[30],-0.441
same,glycan array binding signal (z-score),[31],-0.531
same,glycan array binding signal (z-score),[32],-0.484
same,glycan array binding signal (z-score),[33],-0.1
same,glycan array binding signal (z-score),[34],0.09
same,glycan array binding signal (z-score),[35],-0.231
same,glycan array binding signal (z-score),[36],-0.09
same,glycan array binding signal (z-score),[37],0.859
